Measurements published in PubChem BioAssay AID686979 (National Center for Advancing Translational Sciences (NCATS), 2013).
“And” between values parts separate entries of the source, which are not always exact repeats. Equal values may be shown once. The whole screen tested about 420,000 compounds, of which about 50,000 (12%) were called active. Inconclusive means that the source gave no clear call. Such entries were picked first, then a sample of the others. The call rests on the fitted dose curve; in most records, active means well fitted inhibition curve with a large enough effect; inconclusive means small, poorly fitted or top-dose-only effect; inactive means flat fitted curve, though single readings scatter. A potency beside an inconclusive call is a rough fit, not a confirmed value.

Assay: qHTS for Inhibitors of human tyrosyl-DNA phosphodiesterase 1 (TDP1): qHTS in cells in presence of CPT; further: nearly all actives have a fitted effect of over 55% in size
Conditions: chicken DT40 Tdp1-/-;hTDP1 cells + 20 nM CPT, ATP luminescence, 48 h; activity change, negative = growth inhibition: at 46.2 µM (top of the series) unless noted
Method in brief: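 Chicken DT40 Tdp1-/- cells complemented with human TDP1, 400 cells/well, exposed to compounds plus 20 nM camptothecin for at least 48 h at 37 C; viability read as ATP content by CellTiter-Glo luminescence.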
On the % scale 0 is the no-effect control and ±100 the full control effect; potency means the concentration at half of the fitted maximal effect; tags describe the fitted curve by direction and shape.

| Structure (SMILES) | Potency | activity change, negative = growth inhibition |
| --- | --- | --- |
| Cc1ccc(C)c(OCc2cc(C(=O)N3CCc4sccc4C3)no2)c1 | active: 16.4 µM | – |
| COc1cccc(N2CCN(Cc3nc4scc(-c5ccccc5)c4c(=O)[nH]3)CC2)c1 | active: 5.17 µM | – |
| COc1ccc(-c2nc3scc(CCNC(=O)c4cc(OC)cc(OC)c4)n3n2)cc1 | inconclusive: 29.1 µM [inhibitor, single point] | – |
| CCc1ccccc1NC(=O)c1sc(-n2nc(C)c(Cc3ccc4c(c3)OCO4)c2C)nc1C | inconclusive: 14.6 µM [inhibitor, partial curve] | – |
| CCNC(=S)/N=C(/Nc1ccccc1)Nc1nc(C)cc(C)n1 | inconclusive: 29.1 µM [inhibitor, single point] | – |
| CCOC(=O)C1CCCN(S(=O)(=O)c2ccc3[nH]c(=O)oc3c2)C1 (stereo not given) | – | inactive: -27.2% |
| COc1ccccc1NC(=O)c1sc2ncn(Cc3ccccc3Cl)c(=O)c2c1C | – | inactive: -5.1% |
| C/C=C(\C)C(=O)NCCN1Cc2ccccc2OC(c2ccccc2OC)C1 (stereo not given) | – | inactive: -7.31% [at 9.04 µM] |
| COCCCNC(=O)CCCN1C(=O)c2cccnc2Sc2ccccc21 | – | inactive: -6.34% |
| Cc1[nH]c2ccc(Br)cc2c(=O)c1CN1CCCCCC1 | inconclusive: 9.2 µM [inhibitor, partial curve] | – |
| N#Cc1ccc(CN2CC3(CCN(C(=O)c4cccc(F)c4)CC3)C2)cc1 | inconclusive: 16.4 µM [inhibitor, partial curve, poor fit] | – |
| CO[C@H]1/C=C/O[C@@]2(C)Oc3c(C)c(O)c4c(O)c(c5c(c4c3C2=O)NC2(CCN(CC(C)C)CC2)N=5)=NC(=O)/C(C)=C\C=C\[C@H](C)[C@H](O)[C@@H](C)[C@@H](O)[C@@H](C)[C@H](OC(C)=O)[C@@H]1C | inconclusive: 18.4 µM [inhibitor, single point] | – |
| COc1ccc(NC2CCCN(Cc3cccc4cnccc34)C2)cc1OC (stereo not given) | inconclusive: 13 µM [inhibitor, partial curve] | – |
| Cc1cc(C)n2c(SCC(=O)NCc3ccc4c(c3)OCO4)nnc2n1 | – | inactive: -7.6% |
| COc1ccc(Br)cc1S(=O)(=O)NCCc1cccs1 | – | inactive: -16.8% |
| Cc1cccc(C(=O)Nc2ccc3oc(-c4ccncc4)nc3c2)c1 | active: 20.6 µM | – |
| CC1Cc2ccccc2N1C(=O)CSc1nnc(-c2ccc(S(=O)(=O)N3CCOCC3)cc2)n1C (stereo not given) | active: 16.4 µM | – |
| COc1ccc2c(c1)C=C(C(=O)NCc1cc(Br)ccc1OC)CO2 | inconclusive: 20.6 µM [inhibitor, single point] | – |
| O=c1[nH]c(Cc2ccccn2)nc2scc(-c3ccc(Cl)cc3)c12 | inconclusive: 1.64 µM [inhibitor, partial curve] | – |
| CCCCCn1cc2c(c1-c1ccc(Cl)cc1)c(=O)n(C)c(=O)n2C | active: 16.4 µM | – |
| CCC(C)NCCCCOc1ccc(Br)cc1 (stereo not given) | inconclusive: 23.1 µM [inhibitor, partial curve] | – |
| COc1ccc(S(=O)(=O)NCC(c2ccc(N(C)C)cc2)N2CCOCC2)cc1 (stereo not given) | – | inactive: -3.9% |
| O=[N+]([O-])c1cc(NS(=O)(=O)c2ccc(Cl)nc2)ccc1Cl | inconclusive: 29.1 µM [inhibitor, single point] | – |
| COc1ccc(-c2[nH]c3ccccc3c2SCCNC(=O)c2ccc(S(=O)(=O)N(C)C)cc2)cc1 | active: 3.26 µM | – |

| Structure (SMILES) | Potency | activity change, negative = growth inhibition |
| --- | --- | --- |
| Cn1ccnc1C1CCCCN1C(=O)c1cc(COc2ccc(F)cc2F)on1 (stereo not given) | inconclusive: 23.1 µM [inhibitor, single point] | – |
| COc1ccc(-n2c(-c3ccc(F)cc3)cnc2SCC(=O)NCc2ccco2)cc1 | – | inactive: -17.9% |
| O=C(COC(=O)c1cnccn1)c1ccc([N+](=O)[O-])cc1 | active: 23.1 µM | – |
| O=C(CSc1nnc(CNc2ccc(F)cc2)o1)N1CCN(C(=O)c2ccco2)CC1 | inconclusive: 25.9 µM [inhibitor, single point] | – |
| CCOc1ccccc1Nc1nnc(SCC(=O)Nc2ccc3[nH]c(=O)[nH]c3c2)s1 | – | inactive: 0.397% |
| C[C@]12c3[nH]c4cc(-c5ccco5)ccc4c3CCN1C(=O)[C@@H](CC(=O)NCC13CC4CC(CC(C4)C1)C3)C[C@@H]2C(=O)N1CCOCC1 | inconclusive: 20.6 µM [inhibitor, single point] | – |
| CCc1c(C)nc2ncnn2c1N1CCC(C(=O)NCc2ccc3c(c2)OCO3)CC1 | inconclusive: 23.1 µM [inhibitor, single point] | – |
| Cc1cccc(N(Cc2ccccc2)C(=O)C2CCN(C(=O)c3ccccc3C)CC2)c1 | active: 11.6 µM | – |
| COC(=O)Nc1nc2ccc(Sc3ccccc3)cc2[nH]1 | active: 651 nM and active: 360 nM and active: 517 nM | – |
| CC(C)C[C@H](NC(=O)C1CCN(C(=O)[C@H](Cc2ccccc2)NC(=O)OC(C)(C)C)CC1)C(=O)O | – | inactive: 1.68% |
| CN1C(=O)c2ccccc2C(C(=O)NCc2ccco2)C1c1c[nH]c2ccccc12 (stereo not given) | inconclusive: 25.9 µM [inhibitor, single point] | – |
| Cc1cc2ccccn2c1C(=S)NC(=O)c1ccccc1 | inconclusive: 29.1 µM [inhibitor, single point] | – |
| COC(=O)C1=C(\O)CCCC/C=C\1C(=O)O | – | inactive: 1.22% |
| CCN1CCN(c2cc3nc(C)n(Cc4ccccc4)c(=O)c3cc2NC(=O)c2ccccc2F)CC1 | inconclusive: 23.1 µM [inhibitor, single point] | – |
| CC(=O)NC(c1ccccc1)c1nc(-c2cc3ccccc3o2)cs1 (stereo not given) | active: 23.1 µM | – |
| Cc1ccc(NC(=O)NC2CC(=O)N(c3ccc4c(c3)OCCO4)C2)cc1F (stereo not given) | – | inactive: -1.14% |
| CNC(=O)CSc1nnc(-c2ccco2)n1-c1cccc(OC)c1 | – | inactive: -9.43% |
| COc1cccc(-c2nc(CS(=O)(=O)CC(=O)Nc3ccccc3Br)c(C)o2)c1 | – | inactive: -29.3% |
| Cn1c(CN2CCCC2)nc2cc(NC(=O)COc3ccc(Cl)cc3)ccc21 | inconclusive: 29.1 µM [inhibitor, single point] | – |
| CC1CCCCC1NC(=O)c1c(O)nc2ccccn2c1=O (stereo not given) | inconclusive: 20.6 µM [inhibitor, single point] | – |
| CCC(C)[C@H]1CNCCN1CCc1cccc2ccccc12 (stereo not given in full) | active: 16.4 µM | – |
| O=C(CSC1=Nc2ccccc2N=C(c2ccc(F)cc2)C1)NCc1ccccc1Cl | active: 23.1 µM | – |
| O=C(COC(=O)c1c(F)cccc1Cl)NCC1CCCCC1 | inconclusive: 0.0164 µM [inhibitor, full curve, poor fit] | – |
| CCOc1ccc(CCNC(=O)CCOc2cc(C)ccc2C)cc1OCC | inconclusive: 13 µM [inhibitor, partial curve] | – |

| Structure (SMILES) | Potency | activity change, negative = growth inhibition |
| --- | --- | --- |
| Cc1ccc(N=C2NC(=O)/C(=C\c3ccsc3)S2)c(C)c1 | active: 16.4 µM | – |
| CC(C)(C)c1ccc2oc(=O)cc(-c3cccc(-c4ccc(C(F)(F)F)cc4)c3)c2c1 | inconclusive: 16.4 µM [inhibitor, single point] | – |
| CCCCOc1ccc(CNC(=O)Cc2ccc(NC(=O)N3CCSc4ncccc43)cc2)cc1 | inconclusive: 18.4 µM [inhibitor, single point] | – |
| COC(CNC(=O)C(=O)Nc1ccc2c(c1)N(S(=O)(=O)c1cccs1)CCC2)OC | inconclusive: 25.9 µM [inhibitor, single point] | – |
| CCNc1oc(-c2ccc(COc3ccc(Cl)cc3)o2)nc1C#N | inconclusive: 29.1 µM [inhibitor, single point] | – |
| CN=C(Nc1cc(Cl)ccc1Cl)SC1CC(=O)N(c2ccc(C(=O)OC)cc2)C1=O (stereo not given) | inconclusive: 23.1 µM [inhibitor, single point] | – |
| CC1(C)CC(=O)c2cc(N=C/C(C(=O)c3ccccc3)=C(\O)c3ccccc3)c(=O)oc2C1 | inconclusive: 29.1 µM [inhibitor, single point] | – |
| COC(=O)C1=C/CCCN(C(c2ccccc2)c2ccccc2)/C=C\1C(=O)OC | inconclusive: 32.6 µM [inhibitor, partial curve, poor fit] | – |
| COc1ccc(OCC(=O)NNC(=O)c2nn(C)c(=O)c3ccccc23)cc1 | – | inactive: 21.3% |
| O=C(Nc1sc2c(c1C(=O)O)CCCCC2)c1ccccc1F | inconclusive: 16.4 µM [inhibitor, partial curve, poor fit] | – |
| Cn1ccc2c(N3CCCC3)cc3c(c21)C1CCC3C1 (stereo not given) | active: 20.6 µM | – |
| C/C(=N/NC(=O)c1ccccn1)c1c[nH]c2ccccc12 | inconclusive: 29.1 µM [inhibitor, single point] | – |
| COc1ccccc1NC(=O)CCc1nc(-c2ccccc2F)no1 | – | inconclusive: -33.1% [inhibitor] |
| CCn1cc(C(=O)NCc2ccccc2Cl)cn1 | – | inactive: 22.1% |
| CC(=O)Nc1ccc(S(=O)(=O)N(C)CC(=O)OCC(=O)N(C)C2CCS(=O)(=O)C2)cc1 (stereo not given) | – | inactive: -10.9% |
| O=C(Nc1ccc(Cl)c(-c2nc3ccccc3[nH]2)c1)c1ccc2c(c1)OCO2 | inconclusive: 25.9 µM [inhibitor, single point] | – |
| O=C(Nc1ccncc1)c1ccc2c(c1)OCCO2 | inconclusive: 20.6 µM [inhibitor, single point] | – |
| O=C1CS(=O)(=O)N(Cc2cccc(F)c2)c2ccc(Br)cc21 | inactive and inconclusive: 11.2 µM [inhibitor, partial curve] | – |
| CN(C)c1cc2c(c(N(C)C)c1)C(=O)c1ccccc1C2=O | inconclusive: 25.9 µM [inhibitor, single point] | – |
| O=C(O)CC1NC(=S)N(Cc2ccccc2)C1=O (stereo not given) | active: 20.6 µM | – |
| CNC(=O)CCn1nc(-c2ccc(C)cc2)c2ccccc2c1=O | – | inactive: -0.0982% |
| CC1CCc2c(sc(/N=C/N(C)C)c2C#N)C1 (stereo not given) | inconclusive: 20.6 µM [inhibitor, single point] | – |
